# According to PubChem BioAssay AID1347073 (National Center for Advancing Translational Sciences (NCATS), 2019):
# Out of some 45,000 compounds screened, about 200 (0.44%) were called active. Not shown: some 7% with an inconclusive outcome. Calls follow the shape of the dose curve; as a rule, active = well fitted activation curve with a large enough effect; inconclusive = small, poorly fitted or top-dose-only effect; inactive = no such curve, though single readings can be large or run the other way. The list shows a part of the results.
# Experiment: qHTS of TDP-43 Inhibitors: NCGC Sytravon Library Screen; also: 0% is about no effect; nearly all actives have a fitted effect of over 55% in size
# Details: yeast TDP-43 toxicity rescue, BacTiter-Glo growth, 24 h; series mostly up to 46.1 µM; growth rescue (activation): at the top concentration
# Outline: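 TDP-43-expressing yeast, pregrown in raffinose, seeded at OD600 0.02 in galactose medium with compound for 24 hr at 30 deg C. Growth read by BacTiter-Glo luminescence, so rescue of toxicity appears as activation.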
row,SMILES,growth rescue (activation)
1,COc1ccccc1CCNC(=O)CCCn1c(=O)c2cccn2c2cccnc21,inactive: 10.9%
2,CNC(=S)NCCN1CCOCC1,inactive: 20.4%
3,CCC/C=N/NC(=O)CNC(=O)c1ccccc1Cl,inactive: 0.963%
4,O=CC1=C(N2CCOCC2)/C(=C\c2ccccc2)CC1,inactive: 0.476%
5,COC(=O)c1ccc(NC(=O)Nc2ccc(F)cc2F)cc1,inactive: 9.22%
6,CC(=O)C1=C(O)C(=O)N(CCCn2ccnc2)C1c1ccc(Br)cc1 (stereo not drawn),inactive: 17.3%
7,O=C(Nc1ccc(Cl)cc1C(F)(F)F)C(Sc1nnc(-c2cccs2)o1)c1ccccc1 (stereo not drawn),inactive: 12.7%
8,CN(CC(=O)N1CCN(c2ccccc2)CC1)S(=O)(=O)c1cccs1,inactive: 7.12%
9,CCOC(=O)c1c(NC(=O)/C=C/c2ccc(Cl)cc2)sc2c1CCC(C)C2 (stereo not drawn),inactive: 4.09%
10,NC(=O)CC(NC(=O)c1ccc(Cl)cc1)C(=O)NCCc1ccc(S(N)(=O)=O)cc1 (stereo not drawn),inactive: 8.1%
11,CCCCNC(=S)N(Cc1c(C)noc1C)c1ccccc1,inactive: 8.72%
12,CC(C)(C)c1ccc(CC(=O)N2CCC2(C)C(=O)NCc2cccc3ccccc23)cc1 (stereo not drawn),inactive: -0.303%
13,O=C(C[n+]1cccc(C(=O)Nc2ccccc2)c1)c1ccc([N+](=O)[O-])cc1,inactive: 12.3%
14,O=C(N/N=C/c1ccc(O)c(O)c1)NC12CC3CC(CC(C3)C1)C2,inactive: 0.859%
15,O=C(NN=C1CCCCCCC1)c1ccc2ccccc2n1,inactive: 9.52%
16,CN(C)CCCNC(=O)c1ccc(-c2cc3nc(NCc4cccnc4)n(C)c(=O)c3s2)cc1,inactive: 14%
17,CCOc1ccc(S(=O)(=O)N2CCC(C(=O)NCc3ccccn3)CC2)cc1Cl,inactive: -4.66%
18,C=C(C)c1cccc(C(C)(C)NC(=O)NC(c2ccccc2)c2ccc(OC)cc2)c1 (stereo not drawn),inactive: -14.3%
19,CC1(C)CC(=O)C(C(N)=NC(=O)c2ccccc2)=C(O)C1,inactive: 5.07%
20,Cn1c(=O)c2cc(NC(=O)CC(C)(C)C)ccc2n1-c1ccccc1F,inactive: -2.83%
21,CNc1cnc(-c2cccc(C(=O)N3CCOCC3)c2)cn1,inactive: -12.4%
22,CCOC(=O)C1=C(C)NC(=S)N(C(C)=O)C1c1ccc(OC)c(OC)c1 (stereo not drawn),inactive: 14.2%
23,COc1cc(NC(=O)c2ccc(-c3c(C)noc3C)c3ccoc23)cc(OC)c1OC,inactive: 16.2%
24,NC(=O)c1nsc(C(=O)N(c2ccccc2)C(C(=O)NCc2ccc(F)cc2)c2ccc(O)cc2)c1N (stereo not drawn),inactive: 18%
25,COCCN1C(=O)/C(=C/c2ccc(N3CCCC3)cc2C)SC1=S,inactive: 19.4%
26,CCOc1nc2ccccc2cc1/C=C/C(=O)O,inactive: 4.97%
27,CN(CC(=O)Nc1ccc(C(N)=O)cc1)S(=O)(=O)c1ccc2c(c1)OCCO2,inactive: -2.16%

row,SMILES,growth rescue (activation)
1,COc1cccc(-c2nc3ccccc3s2)c1O,inactive: 3.67%
2,O=C(NCC1CCCO1)c1ccc2[nH]c3c(c2c1)CCCC3 (stereo not drawn),inactive: 25.9%
3,COc1ccc(/C(N)=N/O)c(OC)c1,inactive: -7.78%
4,CC1CN(CC(=O)Nc2ccc([N+](=O)[O-])cc2Br)CC(C)O1 (stereo not drawn),inactive: -5.75%
5,O=[N+]([O-])c1ccc(NCc2ccc3c(c2)OCO3)cc1,inactive: 19.3%
6,Cc1cccc(Nc2nnc(SCC(=O)Nc3cccc(S(=O)(=O)N4CCCCC4)c3)s2)c1,inactive: 11.3%
7,CCCc1nnc(NC(=O)COc2ccc3c(c2)OCO3)s1,inactive: 10.9%
8,COc1cc(N/N=C(\C)c2ccc(O)c(C)c2)nc(-c2ccccc2)n1,inactive: 19.4%
9,C=C(C)Cn1c(SCC(=O)N/N=C/c2ccccc2)nc2ccccc2c1=O,inactive: -5.63%
10,Nc1nonc1-n1nnc(C(=O)N/N=C/c2ccc(Cl)cc2Cl)c1CN1CCOCC1,inactive: 2.08%
11,COc1ccc(OC)c(NC(=O)C2CC(=O)N(CCc3ccc(F)cc3)C2)c1 (stereo not drawn),inactive: 4.65%
12,COc1ccc(C(=O)NC2CCCCC2)cc1OC1CCN(C(C)C)CC1,inactive: 3.78%
13,CC(C)n1cc(CN2CCCC(C(=O)Nc3ccccc3Oc3cccnc3)C2)cn1 (stereo not drawn),inactive: -21.6%
14,COc1ccc(C2(C(=O)Nc3ccc(C)c(C)c3)CCOCC2)cc1,inactive: -13.5%
15,Cc1ccc(CN2CCNC(=O)C2CC(=O)NCCCn2cccn2)o1 (stereo not drawn),inactive: 14%
16,O=c1c(-c2ccco2)[n+]([O-])c2ccccc2n1OCc1ccccc1[N+](=O)[O-],inactive: -8.61%
17,CC(=O)N/C(=C\c1ccccc1)C(=O)OCc1cc(C)ccc1C,inactive: 3.26%
18,N#Cc1ccc(OCC(O)CN2CCN(c3ncc(C(F)(F)F)cc3Cl)CC2)cc1 (stereo not drawn),inactive: 6.74%
19,COc1ccc(Cl)cc1NC(=O)CN1C(=O)CCS(=O)(=O)c2ccccc21,inactive: 15.3%
20,COc1ccc(C(=O)NCCc2c[nH]c3ccccc23)cc1OC,inactive: -0.607%
21,O=C(Cn1cnc2ccccc2c1=O)N1CCc2ccccc2C1,inactive: -0.171%
22,Cc1[nH]c(=O)[nH]c(=O)c1S(=O)(=O)N1CCCC(C(=O)NCCC2=CCCCC2)C1 (stereo not drawn),inactive: 9.23%
23,CCOC(=O)CC1CCCCN1C(=O)CCCn1nnnc1CN1CCC(C)CC1 (stereo not drawn),inactive: -6.84%
24,CC(=O)Nc1ccc(S(=O)(=O)NCC(=O)NCCCc2ccccc2)cc1,inactive: 8.07%
25,Cc1ccccc1N(CC(=O)NC1CCCCC1)C(=O)CCC(=O)Nc1nccs1,inactive: 14.4%
26,Cc1ccc(/C=N/NC(=O)NC2CCCCC2)o1,inactive: 10.6%
